# Assay results from PubChem BioAssay AID624171 (National Center for Advancing Translational Sciences (NCATS), 2012).
# The campaign covered roughly 410,000 compounds. About 1,200 (0.29%) were called active. Inconclusive results, whose numbers are uncertain, are shown with a selection of clear calls. Calls follow the shape of the dose curve; as a rule, active = well fitted activation curve with a large enough effect; inconclusive = small, poorly fitted or top-dose-only effect; inactive = flat fitted curve, though single readings scatter. A potency beside an inconclusive call is a rough fit, not a confirmed value.
# Test: qHTS of Nrf2 Activators; also: nearly all actives have a fitted effect of over 65% in size; as to activation: % of control where 0% means no effect
# Settings: AREc32 ARE-luciferase reporter (MCF7-derived line), luminescence, 24 h; activation: at 46.1 µM (top of the series)
# How it was run: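 Reporter line AREc32 (ARE-Fluc), seeded overnight in OPTI-MEM with 5% FBS; compound pin-transferred, 24 hr at 37 deg C, 5% CO2; luminescent read-out.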
# Potency is read from the fitted curve at half-maximal effect; tags tell the direction and shape of the fitted curve.
SMILES,Potency,activation
COc1ccc2nc(Nc3ccccc3OC)sc2c1,"inconclusive: 2.24 µM [activator, full curve, poor fit]",–
N#Cc1c(Sc2ncc(C(F)(F)F)cc2Cl)nsc1C/C=N\OCc1ccccc1Br,"inconclusive: 35.5 µM [activator, partial curve, poor fit]",–
COc1ccccc1CNc1ccc(-c2nc(-c3ccco3)no2)cc1[N+](=O)[O-],–,inactive: 5.47%
Cc1cccc2c(=O)cc(CSc3ccccc3NC(=O)c3cccc(F)c3)[nH]c12,–,inactive: 6.78%
C=CCSc1nnc(-c2cc3c(s2)-c2ccccc2CC3)o1,"inconclusive: 6.31 µM [activator, partial curve]",–
Nc1ccc(S(=O)(=O)Nc2nccc(/C=C/c3ccc(Cl)cc3Cl)n2)cc1,"inconclusive: 5.62 µM [activator, full curve, poor fit]",–
COc1ccccc1NS(=O)(=O)c1ccc2oc(SC(C)C(=O)N3CCNC3=O)nc2c1 (centres undefined),–,inactive: 0.0838%
Cc1ccc(C(C[N+](=O)[O-])c2c(N)n(C)c(=O)n(C)c2=O)cc1 (centres undefined),"inconclusive: 31.6 µM [activator, single point]",–
O=C(/C=C/c1ccc(-c2ccccc2[N+](=O)[O-])o1)c1ccccc1,"inconclusive: 2.82 µM [activator, full curve, poor fit]",–
O=C(CCl)NCCN1C(=O)S/C(=C\c2cccnc2)C1=O,active: 12.6 µM,–
O=C(COc1ccccc1Br)NCc1ccco1,"inconclusive: 14.1 µM [activator, single point]",–
COc1ccccc1N=CC=C1OC(C)(C)C(C)(C)O1,"inconclusive: 35.5 µM [activator, partial curve, poor fit]",–
COC(=O)c1ccc(COC(=O)CNC(=O)c2ccc(OC)cc2)cc1,–,inactive: 3.17%
CCOC(=O)Cn1c(=O)c(-c2cc(Br)ccc2N)nc2ccccc21,"inconclusive: 10 µM [activator, partial curve]",–
COc1cc(NC(=O)c2ccc([N+](=O)[O-])o2)ccc1NC(=O)c1cccs1,active: 11.2 µM,–
O=C(Nc1nccs1)c1ccc(Cl)c([N+](=O)[O-])c1,"inconclusive: 25.1 µM [activator, single point]",–
CC(C)COc1ccc(C(=O)CCN2CCCCC2)cc1,"inconclusive: 22.4 µM [activator, single point]",–
CN(C)S(=O)(=O)c1cccc(-n2sc3ccccc3c2=O)c1,"inconclusive: 20 µM [activator, single point]",–
C/C(=N/NC(=O)c1ccc(Br)o1)c1cccs1,"inconclusive: 22.4 µM [activator, single point]",–
O=C(Nc1ccccn1)Nc1ccccc1[N+](=O)[O-],active: 3.98 µM,–
O/N=C/c1ccc2cccc(OCc3ccccc3)c2n1,"inconclusive: 3.98 µM [activator, full curve]",–
CCOc1ccccc1NC(=O)Cn1nnc2sc(-c3ccccc3)cc2c1=O,"inconclusive: 10 µM [activator, partial curve, poor fit]",–
Cn1c(=O)c2cn3c(c2n(C)c1=O)C(c1ccccc1)CC(c1ccccc1)=N3 (centres undefined),"inconclusive: 15.8 µM [activator, single point]",–
Cc1nccn1C(c1ccccc1)c1ccccc1,–,inactive: 0.58%
O=C(Nn1c(COc2ccccc2)nc2ccccc2c1=O)C(Cl)(Cl)Cl,"inconclusive: 28.2 µM [activator, single point]",–

SMILES,Potency,activation
CC1(C)CC(=O)c2cnc(NCc3ccco3)nc2C1,"inconclusive: 20 µM [activator, single point]",–
CC(C)(C)c1ccc(/C=C/C(=O)N2CCCCC2)cc1,–,inactive: 4.49%
O=c1oc2ccccc2c(Nc2ccc(O)cc2)c1[N+](=O)[O-],"inconclusive: 25.1 µM [activator, single point]",–
COC(=O)CSc1nc(-c2cccs2)ccc1C#N,"inconclusive: 17.8 µM [activator, single point]",–
NC1=C(c2ccc([N+](=O)[O-])cc2)C(=O)CO1,–,inactive: -0.341%
O=c1[nH]c(SCc2cccc([N+](=O)[O-])c2)nc2[nH]ncc12,"inconclusive: 2 µM [activator, partial curve, poor fit]",–
Nc1ccc2c(c1)C(=O)c1ccc(Cl)cc1-2,"inconclusive: 15.8 µM [activator, partial curve, poor fit]",–
N#C/C(=C\c1ccc(Cl)cc1)c1nc(-c2cc3ccccc3oc2=O)cs1,–,inactive: 0.222%
CN(C)c1cccc(C(=O)OCCCC(=O)c2ccc(F)cc2)c1,–,inactive: -0.293%
Cc1ccc(O)c(NC(=O)c2cccc(NC(=O)c3ccco3)c2)c1,"inconclusive: 10 µM [activator, partial curve, poor fit]",–
COC(=O)C(Cc1c[nH]c2ccccc12)NC(=O)COc1ccc(Cl)cc1Cl (centres undefined),–,inactive: 3.34%
CN(CCO)c1c2c(nc3cc(-c4cccc(F)c4)nn13)CCCC2,"inconclusive: 3.55 µM [activator, partial curve, poor fit]",–
Cc1ccccc1/C=C1\Oc2ccccc2C1=O,active: 12.6 µM,–
C(=N\C(/N=C/c1ccco1)c1ccco1)/c1ccco1,"inconclusive: 12.6 µM [activator, single point]",–
CCOc1ccc(C(=O)NCC(c2cccs2)N(C)C)cc1OCC (centres undefined),–,inactive: 0.484%
C/C(=N/NC(=O)CNC(=O)/C=C/c1ccco1)c1ccc(Cl)cc1,"inconclusive: 5.01 µM [activator, partial curve]",–
CCC(C)[C@@H](N)C(=O)N/N=C/c1cccc2nccnc12 (some centres undefined),–,inactive: -0.356%
Cc1[nH]c2ccccc2c1C(c1ccccn1)N1CCC(C(N)=O)CC1 (centres undefined),"inconclusive: 31.6 µM [activator, single point]",–
Cc1ccc(S(=O)(=O)NNC(=S)Nc2ccc(Cl)cc2)cc1,–,inactive: 0.954%
O=C(NCc1ccco1)c1cc(=O)c2ccccc2o1,"inconclusive: 3.98 µM [activator, full curve]",–
COCCNC(=O)/C(C#N)=C/c1ccccc1Br,"inconclusive: 31.6 µM [activator, single point]",–
CC(=O)Nc1cc2c(cc1[N+](=O)[O-])-c1ccccc1C2=NO,"inconclusive: 14.1 µM [activator, partial curve, poor fit]",–
Cc1ccc(C2=NN3C(C2)c2ccccc2OC32C(=O)Nc3ccccc32)cc1 (centres undefined),"inconclusive: 15.8 µM [activator, partial curve, poor fit]",–
CN(C)CCNC(=O)c1ccc(-n2c(-c3ccccc3)cc3c2CCCC3)cc1,active: 11.2 µM,–
Cn1c(NNC(=O)CCC2CCCCC2)cc(=O)n(C)c1=O,–,inactive: 1.78%

SMILES,Potency,activation
Cc1cc(=O)[nH]c(N/N=C/c2sccc2C)n1,"inconclusive: 11.2 µM [activator, partial curve, poor fit]",–
CCCOc1ccc(-c2nn(-c3ccccc3)cc2C2NC(=O)NC(C)=C2C(=O)OC(C)C)cc1 (centres undefined),–,inactive: -0.671%
O=C(CCNc1ccccc1)c1ccc2c(c1)OCO2,"inconclusive: 25.1 µM [activator, single point]",–
COC(=O)C1=C(C)N(Cc2ccc(C)cc2)C(=O)/C1=C\c1ccc(O)c(OC)c1,"inconclusive: 28.2 µM [activator, single point]",–
O=C1C2C3C=CC(C3)C2C(=O)N1/N=C/c1ccc(-c2ccccc2[N+](=O)[O-])o1 (centres undefined),"inconclusive: 17.8 µM [activator, partial curve, poor fit]",–
CSc1ccc(CNCCCSc2ncccn2)cc1,–,inactive: 2.92%
COC(=O)C1=C(C)OC(N)=C(C#N)C1c1c(C)nn(-c2ccccc2)c1Cl (centres undefined),"inconclusive: 25.1 µM [activator, single point]",–
O=C(NCc1nnnn1-c1ccc(Cl)cc1)c1ccc([N+](=O)[O-])o1,"inconclusive: 3.16 µM [activator, single point]",–
O=C(COc1ccccc1F)OCc1cc(=O)n2nc(-c3cccs3)sc2n1,–,inactive: 5.35%
COc1ccccc1C=C(C(=O)c1ccccc1)c1ccccc1,"inconclusive: 28.2 µM [activator, single point]",–
CNC(=O)c1c(NC(=O)c2ccco2)sc2c1CCC2,"inconclusive: 17.8 µM [activator, partial curve, poor fit]",–
CCOC(=O)C1=C(C)OC(N)=C(C#N)C1c1cc(F)ccc1F (centres undefined),"inconclusive: 17.8 µM [activator, single point]",–
Cc1ccc(-c2cc(C(F)(F)F)c(C#N)c(SCCC#N)n2)o1,active: 7.08 µM,–
O=C(c1cccs1)N1CCc2ccccc21,"inconclusive: 17.8 µM [activator, partial curve, poor fit]",–
O=C(CN1CC(=O)Oc2ccccc21)OCC(=O)c1ccc(Br)cc1,active: 12.6 µM,–
Cc1cc2c(cc(C(=O)OC(C(=O)NCC3CCCO3)C(C)C)n2C)o1 (centres undefined),–,inactive: -0.569%
Cc1ccc(Cl)cc1N1CCN(C(=O)Cc2c(C(=O)O)c(C)cn2C)CC1,–,inactive: 0.392%
C=CCOc1ccccc1CN(C(=O)CCl)c1ccc2c(c1)OCO2,active: 22.4 µM,–
O=C(/C=C1\C(=O)Nc2ccccc21)/C=C1\C(=O)Nc2ccccc21,"inconclusive: 35.5 µM [activator, single point]",–
O=C(Nc1nc(=O)c2ccccc2s1)c1ccccc1,active: 2 µM,–
Oc1cccc(C=NNc2ccccn2)c1,active: 12.6 µM,–
CC(=O)Nc1ccc(S(=O)(=O)NC2=NCN(C(C)C)CN2)cc1,–,inactive: 0.154%
Oc1ccc(O)c(-c2cnns2)c1,"inconclusive: 22.4 µM [activator, single point]",–
O=C1CN(C(=O)c2ccc(Br)o2)C(c2ccccc2)c2cc(F)ccc2N1 (centres undefined),–,inactive: 4.58%
